No constants are given. Whether binding was seen depends on the method and setting. For some assays here: Binding seen in cells or lysates may run through a third protein. Some binding calls cover weakened binding; strength is not graded here. Where a sequence is shown, tags or fusion partners need not be part of it.
What was measured:
[1] = target: T1, SmKIN24 fused to the GAL4 DNA-binding domain (pBD-SmKIN24) (Sordaria macrospora) (UniProt F7VQV9); experiment: two-hybrid; Matchmaker two-hybrid system 3; kinases fused to GAL4 binding domain (pGBKT7, Y187), partners fused to GAL4 activation domain (pGADT7, AH109); mated diploids, drop plate assay on SD without leu, trp and ade
T1 sequence: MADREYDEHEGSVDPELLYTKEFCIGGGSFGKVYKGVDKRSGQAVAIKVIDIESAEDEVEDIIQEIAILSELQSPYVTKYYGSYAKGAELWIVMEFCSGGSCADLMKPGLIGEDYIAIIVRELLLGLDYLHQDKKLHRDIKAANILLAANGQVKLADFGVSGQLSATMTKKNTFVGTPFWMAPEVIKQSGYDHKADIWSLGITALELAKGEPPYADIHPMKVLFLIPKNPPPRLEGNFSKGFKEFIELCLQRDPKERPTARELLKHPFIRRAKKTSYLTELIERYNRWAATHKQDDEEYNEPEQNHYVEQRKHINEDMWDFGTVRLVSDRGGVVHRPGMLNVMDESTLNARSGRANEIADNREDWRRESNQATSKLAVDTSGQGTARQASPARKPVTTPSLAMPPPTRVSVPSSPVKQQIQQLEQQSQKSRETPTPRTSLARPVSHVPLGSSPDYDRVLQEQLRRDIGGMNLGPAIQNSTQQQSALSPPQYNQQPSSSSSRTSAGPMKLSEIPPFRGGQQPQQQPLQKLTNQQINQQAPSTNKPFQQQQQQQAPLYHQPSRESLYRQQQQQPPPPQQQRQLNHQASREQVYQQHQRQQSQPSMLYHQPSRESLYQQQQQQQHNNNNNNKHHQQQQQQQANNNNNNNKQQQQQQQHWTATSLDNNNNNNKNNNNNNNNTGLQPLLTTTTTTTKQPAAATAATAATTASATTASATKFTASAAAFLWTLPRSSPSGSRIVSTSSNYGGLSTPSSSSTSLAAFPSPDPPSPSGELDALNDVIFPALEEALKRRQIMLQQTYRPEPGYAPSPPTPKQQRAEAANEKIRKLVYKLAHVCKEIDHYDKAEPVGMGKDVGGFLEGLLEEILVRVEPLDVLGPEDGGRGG

[2] = target: T2, SmKIN3 fused to the GAL4 DNA-binding domain (pBD-SmKIN3) (Sordaria macrospora) (UniProt F7VYS5); experiment: as above
T2 sequence: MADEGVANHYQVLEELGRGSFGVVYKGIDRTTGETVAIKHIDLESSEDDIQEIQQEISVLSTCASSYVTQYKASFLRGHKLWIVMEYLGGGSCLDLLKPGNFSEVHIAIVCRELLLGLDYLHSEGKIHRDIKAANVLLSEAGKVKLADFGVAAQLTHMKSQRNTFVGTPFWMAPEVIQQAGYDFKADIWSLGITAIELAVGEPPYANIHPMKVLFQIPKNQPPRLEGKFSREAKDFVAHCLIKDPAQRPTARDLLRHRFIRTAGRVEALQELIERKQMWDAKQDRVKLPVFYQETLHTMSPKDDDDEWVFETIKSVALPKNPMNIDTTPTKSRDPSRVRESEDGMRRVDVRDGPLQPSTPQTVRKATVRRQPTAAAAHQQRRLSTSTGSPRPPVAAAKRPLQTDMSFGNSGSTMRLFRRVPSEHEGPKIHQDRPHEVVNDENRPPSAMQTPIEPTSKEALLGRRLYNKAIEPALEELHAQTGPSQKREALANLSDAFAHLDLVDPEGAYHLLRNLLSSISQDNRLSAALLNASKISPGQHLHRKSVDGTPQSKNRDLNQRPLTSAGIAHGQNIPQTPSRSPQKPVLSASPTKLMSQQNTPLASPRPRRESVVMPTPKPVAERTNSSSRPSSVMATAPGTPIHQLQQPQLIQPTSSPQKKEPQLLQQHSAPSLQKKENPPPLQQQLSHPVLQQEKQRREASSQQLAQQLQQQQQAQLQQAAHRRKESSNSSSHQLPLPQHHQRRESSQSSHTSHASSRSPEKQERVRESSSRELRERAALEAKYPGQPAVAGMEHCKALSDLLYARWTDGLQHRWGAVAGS

[3] = target: T3, N-terminally HA-tagged PRO11 (pHA11) (Sordaria macrospora) (UniProt Q70M86); experiment: co-IP; cell extracts of S. macrospora co-expressing HA-PRO11 and FLAG-SmKIN3; with thiol crosslinker BMH 0.2 mM, 2 h at 4°C, stopped with 25 mM DTT; IP-HA and IP-FLAG, Western blot
T3 sequence: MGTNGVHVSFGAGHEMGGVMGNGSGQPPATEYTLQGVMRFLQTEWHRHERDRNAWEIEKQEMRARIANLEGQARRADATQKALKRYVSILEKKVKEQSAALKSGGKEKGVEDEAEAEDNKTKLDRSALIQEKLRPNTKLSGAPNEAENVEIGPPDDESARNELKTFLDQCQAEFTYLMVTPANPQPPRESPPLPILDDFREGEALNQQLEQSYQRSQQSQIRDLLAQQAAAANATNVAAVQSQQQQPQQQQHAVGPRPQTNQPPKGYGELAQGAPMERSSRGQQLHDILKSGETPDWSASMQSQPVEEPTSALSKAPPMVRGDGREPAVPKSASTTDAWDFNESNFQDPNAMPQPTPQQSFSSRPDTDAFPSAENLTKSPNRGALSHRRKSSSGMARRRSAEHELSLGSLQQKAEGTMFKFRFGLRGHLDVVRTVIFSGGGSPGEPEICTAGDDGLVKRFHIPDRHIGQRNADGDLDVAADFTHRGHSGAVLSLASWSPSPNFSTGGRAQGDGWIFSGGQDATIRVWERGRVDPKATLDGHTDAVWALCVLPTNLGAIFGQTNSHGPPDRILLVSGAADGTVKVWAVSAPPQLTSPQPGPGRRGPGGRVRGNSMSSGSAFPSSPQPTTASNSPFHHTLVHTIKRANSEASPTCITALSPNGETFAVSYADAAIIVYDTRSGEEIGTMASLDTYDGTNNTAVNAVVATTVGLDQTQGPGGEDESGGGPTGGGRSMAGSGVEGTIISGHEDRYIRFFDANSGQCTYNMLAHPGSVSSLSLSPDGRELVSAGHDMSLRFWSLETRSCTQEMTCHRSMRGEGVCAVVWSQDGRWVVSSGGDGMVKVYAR

[4] = target: T4, N-terminally FLAG-tagged SmKIN3 (pFLAG-SmKIN3) (Sordaria macrospora) (UniProt F7VYS5); experiment: co-IP; cell extracts of S. macrospora co-expressing HA-PRO11 and FLAG-SmKIN3; without crosslinker added; Western blot
T4 sequence: T2 sequence

[5] = target: T4, N-terminally FLAG-tagged SmKIN3 (pFLAG-SmKIN3) (Sordaria macrospora); experiment: co-IP; cell extracts of S. macrospora co-expressing HA-PRO11 and FLAG-SmKIN3; with thiol crosslinker BMH 0.2 mM, 2 h at 4°C, stopped with 25 mM DTT; IP-HA and IP-FLAG, Western blot

B1: full-length PRO11 fused to the GAL4 activation domain (pAD11FL) (protein, UniProt Q70M86 1-845)
chain: T3 sequence
binding [1]: binds
binding [2]: binds

B2: N-terminally FLAG-tagged SmKIN3 (pFLAG-SmKIN3) (enzyme, UniProt F7VYS5 1-820)
chain: T2 sequence
binding [3]: binds weakly

B3: N-terminally HA-tagged PRO11 (pHA11) (protein, UniProt Q70M86 1-845)
chain: T3 sequence
binding [4]: no binding (condition: without crosslinker added)
binding [5]: binds weakly

From paper PMC4587736
